± gives the standard deviation of the averaged measurements. The list shows a part of the results.
What follows are sequences tested on PfAP2-EXP AP2 domain (GST-tagged) (assay: gcPBM binding intensity (ln(normalized median fluorescence intensity)); higher = stronger DNA binding).
In short: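 Binding intensity is the highest Masliner-normalised natural-log median intensity over replicate spots in either probe orientation. To obtain it, GST-tagged P. falciparum DNA-binding domains made in E. coli were incubated for 1 h on an Agilent 4 × 180k array of primer-extended double-stranded 36-bp intergenic genomic probes plus negative controls. Detection used Alexa488 anti-GST antibody with scanning at 488 nm.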

Sequence | gcPBM binding intensity (ln)
ATATATATTTTTATAACACACAATGATGTACATTAC [CACACA_site1076] | 8.52 ± 0.26
TTTGTGCTTATCCTAACACACACAACATATAAGAAA [CACACA_site9091] | 8.61 ± 0.42
TTATATATACCATAATGTACTCTATTATATAAAAAA [XGTACX_site7464] | 8.57 ± 0.29
TGTGTAGCTAGGGGGTTGCTAATTTTTGTTTTGACC [CACACA_negctrl_site634] | 9.3 ± 0.24
AATATTTCTTTAATTTGTACATATAAGGGAAAATAA [XGTACX_site6221] | 8.56 ± 0.45
CGGAAAAATTAAAGCACACAAAAAAAAATAAAAAAA [CACACA_site1133] | 8.65 ± 0.4
TTTTATTAATATTGCATGCACACTATATAATAATTG [CACACA_site1049] | 10.02 ± 0.064
TTTTTATTATTTTAAAGTACTCTTTAGTAATTCCCT [XGTACX_site5863] | 8.46 ± 0.42
CACAGATAAATTAACACACACACACCGATATATATA [CACACA_site6049] | 8.83 ± 0.37
AAAAAACATACATACACACACATAAATATTTATATT [CACACA_site7300] | 8.7 ± 0.4
GGTGGTGGTGGGTGGGTGCTTCTATTATTATATTAT [GTGCAC_site9391] | 9.855 ± 0.078
GATGTTTCTATTTTAGTGCATTTTAAATAAATAAAT | 8.72 ± 0.17
TATATATATTATTATGCATGTAATAAAACAAATAAT [TGCATGCA_site625] | 8.98 ± 0.38
ACGTTACATACATATACACACACATATATATATATA [CACACA_site8203] | 10.1 ± 0.35
TCATTCTAAATATAAACACACATAAATAAATACATT [CACACA_site5788] | 8.79 ± 0.27
CTTAGGTGTTCATAGAGTACAAATAAAAAAATAAGA [XGTACX_site2294] | 8.76 ± 0.49
ATATATATTTTAATAACACACATATATTATATTATA [CACACA_site4387] | 8.38 ± 0.31
ATTTCTTCTTTTTTTGTGAAACTGGAATATATATAT [XGTACX_negctrl_site527] | 9.17 ± 0.057
ATAAAAAAATAAATAACACACAAAATTACACGAAAA [CACACA_site3620] | 8.88 ± 0.66

Sequence | gcPBM binding intensity (ln)
TATTAAAAAATTATATGTACACATTTGTTATATACA [XGTACX_site2232] | 8.48 ± 0.38
TTCTTTATATATGTTCGTACATATTATTATAATACA [XGTACX_site1549] | 8.72 ± 0.33
AATTAAAGGAATTACAACTTTGCAAGCGCAACATAA [CACACA_negctrl_site1411] | 8.48 ± 0.27
TATGTCCATATTTCCACACACATATTATTTTTATAT [CACACA_site3798] | 8.94 ± 0.38
CACCATGTTAACAATACATGCATCACTATATAAATG [TGCATGCA_site36] | 8.69 ± 0.42
AAAAAAAAGGAAATAACACACATGTATATATTTATA [CACACA_site1606] | 8.39 ± 0.43
AGTAATTATTTTAGAGTGCATAGTTTTTTAATAAAT | 8.4 ± 0.2
AAATATATTTTTAATAGTACAATATGAAAATTTCAT [XGTACX_site2562] | 8.38 ± 0.33
TTTTTTTTTTTTTTTTGTACTCATACATACTATTAT [XGTACX_site989] | 8.37 ± 0.54
GTACACATATATATATATATATATATATATATATAT [CACACA_negctrl_site800] | 9.97 ± 0.34
TAATTTTCATGTTCATGTACTTAAATATAAGGTAAA [XGTACX_site3284] | 8.36 ± 0.3
ATTCATAACAAAAAAAGTACTCAAAATAATAATAAA [XGTACX_site6079] | 8.59 ± 0.39
TGCCTTATTAAAAGAATTACACATATTTAATCGAAA [GTGCAC_negctrl_site153] | 8.06 ± 0.27
AAATAATTAAAAAAAAGTACACATGTGACTACATAT [XGTACX_site8767] | 8.85 ± 0.38
TCATCATATTATATATGTACATATATAATAATTTAT [XGTACX_site1625] | 8.53 ± 0.33
ATTGTATCTGTATATGCACACAATATCTGTACTTCT [CACACA_site5445] | 8.77 ± 0.3
CGAAATCATATGTACACACACATATATATATATATA [CACACA_site2151] | 10.2 ± 0.62
TTTCAATACTGAAACTGTACTTGTTTTACTTCTATT [XGTACX_site5924] | 8.42 ± 0.16
AAATAAAGCACACCGACACACACATATATATATATA [CACACA_site8256] | 10.2 ± 0.33

Sequence | gcPBM binding intensity (ln)
TATATATATGTATACACACATACAAATATGTAAAAA [CACACA_site3720] | 8.4 ± 0.35
TTATAATTTTTTTTTGCATGTGGGTTTTTTTTTGTT [TGCATGCA_site968] | 8.96 ± 0.42
ATAAAGAAACATATATGTACTTATATATATATATAT [XGTACX_site5625] | 10.1 ± 0.35
TATTCGAAAGAATAGGCATGCAAACATATCTTATTA [TGCATGCA_site147] | 8.95 ± 0.41
TATTATTTATTATATGCACACATCGAACTATTATTT [CACACA_site2544] | 8.73 ± 0.35
AAACATATAAATCACGGTACACATTATTGAAAGTGT [XGTACX_site2966] | 8.66 ± 0.33
ATATAATATTAGTGCACACACAAAAATGTACTAAAC [CACACA_site632] | 9.22 ± 0.36
TTCTATATTATATATGCATGTGTTATTCTTATTTTC [TGCATGCA_site92] | 9.13 ± 0.4
ATATATATTATATGCACACTTATATTTCATTAGATT [CACACA_site2599] | 8.69 ± 0.057
ATTAATCCAAATGAATGTACTTAATAATGTAATTAT [XGTACX_site8946] | 8.2 ± 0.33
AAAAAAAAAATACATACACACACACCCACCCATATA [CACACA_site9187] | 9.14 ± 0.54
TGTCCCCCTTTCTATGCACACTTTAAATTATTCAAA [CACACA_site4200] | 9.06 ± 0.23
ATATTTAGAATGTTCCTACACACCAAATTTAAGTGG [CACACA_site2346] | 8.45 ± 0.36
TTTATTTTACAAAAAAGTACAAGAAGAAATATCAAT [XGTACX_site7812] | 8.7 ± 0.45
TATTAAAAGTAAAAAACACACATGGATAAATACATA [CACACA_site6048] | 8.65 ± 0.41
ATATATAATATATGTGGTACGCAAAATATTATATTA [XGTACX_site4969] | 8.6 ± 0.35
AATACACGCAAACACACACACACACCCACATATATA [CACACA_site638] | 8.71 ± 0.4
AATGATATATTATAAACACACAAAGATGGATATATA [CACACA_site7349] | 8.47 ± 0.44
TTATATATAAATGAAAGTACAAAACAGGAAAGAATA [XGTACX_site1076] | 9.23 ± 0.51

Source: the supplement of paper PMC11417369
